Measured values from PubChem BioAssay AID485294 (National Center for Advancing Translational Sciences (NCATS), 2010).
Screen size: about 370,000 compounds; about 150 (0.041%) were called active. The inconclusive results got no clear call from the source; some entries with a clear call stand among them for comparison. Calls come from the whole dose curve; as a rule, active = well fitted inhibition curve with a large enough effect; inconclusive = small, poorly fitted or top-dose-only effect; inactive = flat fitted curve, though single readings scatter. No potency is given beside an inconclusive call; the fits are too rough.

Biological target: Beta-lactamase (Escherichia coli (strain K12)) (UniProt P00811)
UniProt P00811, sequence (P00811 whole entry, looked up): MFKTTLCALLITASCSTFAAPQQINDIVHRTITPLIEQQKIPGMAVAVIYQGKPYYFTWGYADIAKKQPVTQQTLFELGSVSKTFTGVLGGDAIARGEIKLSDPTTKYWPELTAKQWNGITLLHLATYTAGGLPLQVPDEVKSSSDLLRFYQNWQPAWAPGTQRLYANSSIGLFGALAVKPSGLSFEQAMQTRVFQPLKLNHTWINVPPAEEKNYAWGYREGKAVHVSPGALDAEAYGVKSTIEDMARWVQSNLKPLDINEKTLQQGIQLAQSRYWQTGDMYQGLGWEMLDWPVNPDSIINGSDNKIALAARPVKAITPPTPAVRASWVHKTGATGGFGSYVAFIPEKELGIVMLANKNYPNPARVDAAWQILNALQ
Experiment: qHTS Inhibitors of AmpC Beta-Lactamase (assay with detergent); note: nearly all actives have a fitted effect of over 25% in size
Settings: AmpC hydrolysis of nitrocefin, absorbance 480 nm, 0.01% Triton; series mostly up to 114 µM
Procedure, shortened: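 AmpC (5.3 nM in the dispensed reagent) in 20 mM phosphate pH 7.0 with 0.01% (detergent screen) or 0.0001% Triton X-100 was preincubated with compounds for 15 min at room temperature. Nitrocefin was then added from an 800 uM solution, and hydrolysis was followed at 480 nm.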
Potency is the fitted concentration of half-maximal effect; tags give direction and shape of the fitted curve.

Row | Structure (SMILES) | Potency
1 | O=C(/C=C/NNC(=O)c1ccccc1)c1ccc(Br)cc1 | inconclusive [inhibitor, single point]
2 | CC(C)C[C@@H]1NC(=O)[C@H](Cc2ccc(O)cc2)NC(=O)[C@H](CCC(N)=O)NC(=O)c2cc([N+](=O)[O-])cc(I)c2NCC[C@@H](C(N)=O)NC1=O | inconclusive [inhibitor, full curve, poor fit]
3 | CC(=O)Nc1ccc(NC(=O)COC(=O)C2(c3ccc(Cl)cc3)CCCC2)cc1 | inconclusive [inhibitor, full curve]
4 | COc1ccccc1N1CCN(/N=C\c2sccc2C)CC1 | inconclusive [inhibitor, single point]
5 | COc1cccc(CNC(=O)CCn2c(=O)c3cccn3c3cccnc32)c1 | inconclusive [inhibitor, full curve, poor fit]
6 | CC(C)(C)C1CCC(OC(=O)c2ccncc2)CC1 (configuration not stated) | inconclusive [inhibitor, full curve, poor fit]
7 | N#Cc1ccc(C(c2nnnn2Cc2ccccc2)N2CCCC2)cc1 (configuration not stated) | inconclusive [inhibitor, partial curve]
8 | Cc1ccccc1NC(=O)Cc1nc(COC(=O)c2ccc(Cl)nc2)cs1 | inconclusive [inhibitor, single point]
9 | COC(=O)c1ccccc1NC(=O)Cn1cc2c(n1)CCC(C)C2 (configuration not stated) | inconclusive [inhibitor, full curve, poor fit]
10 | CCOC(=O)c1ccccc1NC(=O)/C=C/C(=O)O | inactive
11 | Cc1ccc(NC(=O)CC2Nc3ccccc3NC2=O)cc1Cl (configuration not stated) | inconclusive [inhibitor, partial curve, poor fit]
12 | CCCCOc1ccc(C(=O)NCC(=O)NNC(=O)C2COc3ccccc3O2)cc1 (configuration not stated) | inconclusive [inhibitor, full curve, poor fit]
13 | COCCN(C(=O)CSc1nc(-c2ccccc2)cn1N)c1c(N)n(Cc2ccccc2)c(=O)[nH]c1=O | inconclusive [inhibitor, full curve, poor fit]
14 | O=C(Nc1cccc(Cl)c1)Nc1nnc(-c2ccncc2)s1 | inconclusive [inhibitor, full curve, poor fit]
15 | CCOc1ccccc1OCC(=O)NNC(=O)Cn1cnc2c1c(=O)n(C)c(=O)n2C | inactive
16 | C/C(=N/NS(=O)(=O)c1ccccc1)c1ccc(NC(=O)C(F)(F)F)cc1 | inconclusive [inhibitor, full curve, poor fit]
17 | O=C(NCc1ccccc1)c1ccc(Br)o1 | inactive
18 | CCCCOc1ccccc1NC(=O)c1ccco1 | inactive
19 | CCOC(=O)C(C)Sc1nc2c(c(-c3cccs3)c1C#N)CCC2 (configuration not stated) | inactive
20 | O=C(CSc1ccc(-c2ccc(-n3cccn3)cc2)nn1)Nc1ccccc1F | inconclusive [inhibitor, full curve, poor fit]
21 | CC1CCCN(C(=O)c2cn(-c3ccccc3)nc2-c2cccnc2)C1 (configuration not stated) | inconclusive [inhibitor, full curve, poor fit]
22 | CCOC(=O)CC1CCCCN1C(=O)CCCn1nnnc1CN1CCOCC1 (configuration not stated) | inactive
23 | Clc1ccc(-c2nnc(CCc3ccccc3)o2)c(Cl)c1 | inconclusive [inhibitor, single point]

Row | Structure (SMILES) | Potency
24 | CCCCCCCC(=O)NC(Oc1ccccc1[N+](=O)[O-])C(Cl)(Cl)Cl (configuration not stated) | inconclusive [inhibitor, full curve, poor fit]
25 | Cc1ccc(-c2nc3sc4c(c3c(=O)n2N)CC(C)(C)OC4)cc1 | inactive
26 | S=c1[nH]nc(-c2ccc3ccccc3n2)n1-c1ccc(Cl)cc1 | inconclusive [inhibitor, single point]
27 | O=C(NCc1ccncc1)Nc1ccccc1 | inconclusive [inhibitor, full curve]
28 | CCN1CCN(C(=O)c2cc(S(=O)(=O)N3CCCCC3)ccc2Cl)CC1 | inconclusive [inhibitor, single point]
29 | c1ccc2oc(-c3ccn[nH]3)cc2c1 | inconclusive [inhibitor, full curve, poor fit]
30 | O=C(CSc1ncccn1)NCc1ccc2c(c1)OCO2 | inconclusive [inhibitor, full curve]
31 | O=C(NCc1cccnc1)c1ccc(-c2cccc(Cl)c2Cl)o1 | inactive
32 | COc1ccc(N2CCN(C(=O)C(=O)c3cn(CC(=O)N4CCCCCC4)c4ccccc34)CC2)cc1 | inactive
33 | Cc1cc(C)c(OCCCON2C(=O)CCC2=O)c(Br)c1 | inactive
34 | Cn1c(=O)n(Cc2ccccc2Br)c2ccccc21 | inactive
35 | COc1cc(C(=O)NCCc2ccc(S(N)(=O)=O)cc2)cc(OC)c1OC | inconclusive [inhibitor, full curve, poor fit]
36 | Cc1cc(NC(=O)CCCSc2nc(-c3ccco3)cc(C(F)(F)F)n2)no1 | inconclusive [inhibitor, partial curve]
37 | CCCNC(=O)C1CN(S(=O)(=O)c2ccc(C)cc2)c2ccccc2O1 (configuration not stated) | inconclusive [inhibitor, full curve, poor fit]
38 | CC(=O)N(C)c1ccc(NC(=O)/C=C/c2ccccc2Cl)cc1 | inactive
39 | Cc1cc2c(n1-c1ccc(C(=O)NCc3cccc(Br)c3)cc1)CCC(C)C2 (configuration not stated) | inactive
40 | CN(C)Cc1nc2ccccc2c(=O)n1Cc1nc(-c2cc3ccccc3o2)cs1 | inconclusive [inhibitor, single point]
41 | Cc1cc(C(=O)Nc2sc3c(c2C#N)CCCCC3)cs1 | inconclusive [inhibitor, single point]
42 | COc1ccc(CCNC(=O)Cc2cccs2)cc1 | inactive
43 | CCCCn1c2nc3ccccc3nc2c2c(=N)oc(C)nc21 | inconclusive [inhibitor, full curve, poor fit]
44 | CCn1c(SCC(=O)Nc2nc3ccc(OC)cc3s2)nnc1-c1ccoc1C | inconclusive [inhibitor, single point]
45 | CCN(CC)C(=O)Oc1cc(=O)n(C)c2ccccc12 | inconclusive [inhibitor, full curve, poor fit]
46 | CN(C)C(=O)c1ccc(NC(=O)CSc2nnc(-c3ccc4c(c3)OCO4)o2)cc1 | inconclusive [inhibitor, full curve, poor fit]

Row | Structure (SMILES) | Potency
47 | Cc1ccc(S(=O)(=O)N2CCN(S(=O)(=O)N3CCOCC3)CC2)cc1 | inconclusive [inhibitor, full curve]
48 | Cc1cc(C)cc(-n2c(C)cc(/C=N/NC(=O)CN(c3c(C)cccc3C)S(C)(=O)=O)c2C)c1 | inconclusive [inhibitor, single point]
49 | CCc1ccc(S(=O)(=O)NCCOc2cccc3cccnc23)cc1 | inconclusive [inhibitor, full curve]
50 | Cc1oc(-c2cccc(Cl)c2)nc1CN1CCC(C(=O)NCc2ccc(F)cc2)CC1 | inactive
51 | CN(C)/C=N/c1cnc(C(=O)c2ccc(Cl)cc2)n1C | inactive
52 | O=C(Nc1cccc(C(=O)N2CCCc3ccccc32)c1)c1ccccc1 | inconclusive [inhibitor, full curve, poor fit]
53 | CCOc1ccc(N(CC(=O)OC)S(=O)(=O)c2c(C)noc2C)cc1 | inconclusive [inhibitor, full curve, poor fit]
54 | Cc1ccccc1C(=O)NC(C)C(c1cccs1)N1CCOCC1 (configuration not stated) | inconclusive [inhibitor, full curve]
55 | Cc1ccc(N2CCN(CCCN3C(=O)C4CCCN4C3=O)CC2)cc1 (configuration not stated) | inconclusive [inhibitor, partial curve, poor fit]
56 | CC1CN(c2cc(=O)n(Cc3ccc(F)cc3)c(=O)[nH]2)CC(C)O1 (configuration not stated) | inconclusive [inhibitor, full curve, poor fit]
57 | COc1ccc(-c2cc(C(=O)N3CC(C)CC(C)C3)c3ccccc3n2)cc1OC (configuration not stated) | inconclusive [inhibitor, full curve, poor fit]
58 | CCC1Oc2ccccc2N(CC(=O)Nc2ccc3c(c2)OCCO3)C1=O (configuration not stated) | inconclusive [inhibitor, partial curve, poor fit]
59 | CC(C(=O)OCC(=O)N1CCN(c2ccccc2)CC1)N1C(=O)c2ccccc2C1=O (configuration not stated) | inconclusive [inhibitor, single point]
60 | O=C(Nc1nnc(N2CCCC2)s1)Nc1cc(F)ccc1F | inactive
61 | O=C(COC(=O)c1cccs1)NCC1CCCO1 (configuration not stated) | inconclusive [inhibitor, full curve]
62 | Nc1nonc1-c1nc2ccccc2n1CC(=O)N1CCCCC1 | inconclusive [inhibitor, full curve, poor fit]
63 | CCn1c(SCC(=O)NC2CCCC2)nnc1-c1ccccn1 | inactive
64 | Cc1c(NC(=O)NC(=O)c2ccc(F)cc2)c(=O)n(-c2ccccc2)n1C | inconclusive [inhibitor, full curve, poor fit]
65 | CN(C)/C=C(/C(=O)c1ccc(Cl)cc1)S(=O)(=O)c1ccccc1 | inconclusive [inhibitor, partial curve, poor fit]
66 | O=C(Cn1c(=O)n(CCCS(=O)(=O)C2CCCCC2)c(=O)c2ccccc21)Nc1ccccc1F | inconclusive [inhibitor, single point]
67 | Cc1cc(NC(=O)C(C)SCC(=O)Nc2ccc(Br)cc2Br)no1 (configuration not stated) | inconclusive [inhibitor, partial curve, poor fit]
